Test results: PubChem BioAssay AID1963576 (National Center for Advancing Translational Sciences (NCATS), 2024)
The campaign covered roughly 46,000 compounds. About 60 (0.1%) were called active. Inconclusive results (about 3%) are left out. Calls come from the whole dose curve; as a rule, active = well fitted inhibition curve with a large enough effect; inconclusive = small, poorly fitted or top-dose-only effect; inactive = no such curve, though single readings can be large or run the other way. This is one part of the list.

Test: Primary qHTS assay for Inhibitors of ovarian cancer metastasis using an organotypic tumor microenvironment (TME) model.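 For activity change, negative = inhibition: plate controls were DMSO wells for no effect and tomatine positive control wells for full effect.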 Note: nearly all actives have a fitted effect of over 65% in size.
Conditions: SKOV3ip1-GFP adhesion/invasion on 3D omental model, fluorescence; series mostly up to 45.8 µM; activity change, negative = inhibition: at the top concentration
In short: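 Primary human omental fibroblast/mesothelial 3D culture pre-formed 48 h. SKOV3ip1-GFP cells added with compounds (0.36-46 umol/L), incubated 2 h RT/16 h 37 C, fixed; GFP cells quantified at 488/509 nm.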

| Structure (SMILES) | outcome | activity change, negative = inhibition |
| --- | --- | --- |
| CCCOc1ccc(CNC(=O)CN2C(=O)c3cccnc3Oc3ccc(C)cc32)cc1 | inactive |  |
| CCc1cccc(NC(=O)c2c(C)oc3nc(C)nc(N4CCCC4)c23)c1 |  | inactive: 6.54% |
| Cc1ccc(NC(=O)C(=O)NCC2(c3ccccc3)CCCC2)cc1C |  | inactive: -3.09% |
| O=C(CN1C(=O)COc2ccc(S(=O)(=O)N3CCOCC3)cc21)N1CCN(c2ccccc2F)CC1 | inactive |  |
| CCc1ccc(NCc2cc3ccc(OC)cc3n(CC(=O)Nc3ccc(C)c(Cl)c3)c2=O)cc1 |  | inactive: 4.08% |
| CC(C)[C@H](CO)Nc1nc(Nc2ccc(C(=O)O)c(Cl)c2)c2ncn(C(C)C)c2n1 |  | inactive: 31.7% |
| COc1ccc(C(=O)N(Cc2cc(OC)c(OC)c(OC)c2)C2CCS(=O)(=O)C2)cc1Cl (configuration not stated) |  | inactive: 4.86% |
| COc1cccc(NC(=O)Cn2c(=O)n(CCc3ccc(OC)c(OC)c3)c(=O)c3ccccc32)c1 |  | inactive: 17.8% |
| COc1cc(OC)c(OC)cc1CNCCCSc1nnnn1C |  | inactive: 1.68% |
| CCOc1ccc2oc(=O)cc(CN3CCN(c4ccccc4OC)CC3)c2c1 |  | inactive: -6.99% |
| CCc1ccc(OCc2cc(=O)n3cc(C)sc3n2)cc1 | inactive |  |
| COc1ccc(-c2ccc(=O)n(CC(=O)Nc3ccc(OC)c(OC)c3)n2)cc1 |  | inactive: 4.15% |
| CC(C)c1ccc(CNc2n[nH]c(-c3ccco3)n2)cc1 |  | inactive: -9.55% |
| COc1ccc(C2c3c(n(C)c4ccccc34)C(=O)N2CC(=O)Nc2ccc(F)cc2)cc1 (configuration not stated) |  | inactive: -4.59% |
| CCC(=O)N1CCc2cc(OC)c(OC)cc2C1COc1ccc2c(C)cc(=O)oc2c1 (configuration not stated) |  | inactive: 9.33% |
| CC(C)Oc1ccc(CNC(=O)Cn2nc(N3CCN(c4ccccc4)CC3)ccc2=O)cc1 |  | inactive: -6.89% |
| Cn1cc(S(=O)(=O)N2CCOCC2)cc1C(=O)Nc1cccc(C#N)c1 |  | inactive: -12.4% |
| Cc1ccc(C(=O)c2oc3ccccc3c2NC(=O)Cc2ccccc2)cc1 | inactive |  |
| O=C1N(Cc2ccccc2)c2ccccc2C1(O)c1c[nH]c2ccccc12 (configuration not stated) |  | inactive: -19.8% |
| Cc1ccc(NC(=O)C2CCCN2S(=O)(=O)c2ccc3c(c2)n(C)c(=O)c(=O)n3C)cc1C (configuration not stated) |  | inactive: 0.735% |
| Cn1c(=O)c2c(SCC(=O)N3CCc4ccccc43)nc(-c3ccc(Cl)cc3)nc2n(C)c1=O |  | inactive: 2.74% |
| CCn1nnc2cc(C(=O)Nc3ccc(Br)cc3F)ccc21 |  | inactive: -5.83% |
| CCOC(=O)c1c(S(=O)(=O)N2CCC(C(=O)N3CCN(c4ccc(F)cc4)CC3)CC2)c(C)n(C)c1C |  | inactive: -0.939% |
| Cn1ncc2c(NCc3ccc(F)cc3)ncnc21 |  | inactive: -3.56% |
| CC(=O)Nc1cccc(C(=O)NCc2ccc3c(c2)CCN3C(=O)c2ccc(F)cc2)c1 | inactive |  |

| Structure (SMILES) | outcome | activity change, negative = inhibition |
| --- | --- | --- |
| O=C(NCCCN1CCN(c2ccccc2F)CC1)c1ccc2nc(N3CCCCC3)sc2c1 |  | inactive: -27% |
| O=C(Nc1ccc(C(F)(F)F)cc1)C(Cc1ccccc1)n1cccc1 (configuration not stated) | inactive |  |
| CC(=O)c1ccc(NC(=O)COCc2cc(-c3ccc(F)cc3)on2)cc1 |  | inactive: 9.43% |
| Cc1c(CCNC(=O)C(C)(C)C)sc2nc(-c3ccc(F)cc3)nn12 |  | inactive: -19.5% |
| COc1cccc(NS(=O)(=O)c2ccc3[nH]cc(C(=O)N4CCCC4)c(=O)c3c2)c1 |  | inactive: 1.14% |
| Cc1cc2c(cc3c(SCc4ccccc4Cl)nnc(C)n32)o1 |  | inactive: 9.45% |
| CCN(C(=O)C1CCCN(c2ncnc3c2nc2n3CCCCC2)C1)c1cccc(Cl)c1 (configuration not stated) |  | inactive: -3.81% |
| Cc1cc(NC(=O)c2ccc(NC(=O)CCS(=O)(=O)c3cccs3)cc2)ccc1Br | inactive |  |
| COc1cc(NC(=O)Cn2nc3c(cc2=O)CC(C)CC3)cc(OC)c1OC (configuration not stated) |  | inactive: 4% |
| Cc1cc(Nc2cc(F)ccc2C)nc(-n2nc(C)cc2C)n1 | inactive |  |
| COc1cc(OC)c(N(C)C(=O)c2sc3nc4n(c(=O)c3c2C)CCCCC4)cc1Cl |  | inactive: -1.95% |
| COc1ccc(OCC(=O)Nc2ccc(-c3nc4cc(C)c(C)cc4o3)cc2)cc1 |  | inactive: -9.36% |
| COc1ccc2[nH]cc(CCN=C(NC(=O)c3ccccc3C)Nc3nc(C)cc(C)n3)c2c1 |  | inactive: 5.97% |
| CN(C)S(=O)(=O)N(CC(=O)NCCSc1ccccc1)c1ccccc1 | inactive |  |
| Cc1c(C(=O)N2CCC(C)CC2)c(S(=O)(=O)Nc2ccc(OC(F)(F)F)cc2)c(C)n1C |  | inactive: -6.92% |
| CC(C)N(Cc1ccccc1)C(=O)CN1C(=O)CSc2ccc(S(=O)(=O)N3CCCC3)cc21 | inactive |  |
| Cc1ccccc1C(C(=O)NC1CCCCC1)N(C(=O)CNc1ccc(C#N)cc1)c1cccc(F)c1 (configuration not stated) |  | inactive: 0.402% |
| N#Cc1c[nH]n2c(NC3CCCC3)c(-c3ccc(Cl)cc3)nc12 |  | inactive: -3.61% |
| O=C(Cn1ncc2c3ccccc3n(Cc3ccc(F)cc3)c2c1=O)NCCCN1CCCCC1 |  | inactive: -1.34% |
| CC1=C(C(=O)Nc2ccccc2)C(c2ccc(O)cc2)n2nc(SCc3ccccc3)nc2N1 (configuration not stated) | inactive |  |
| CCOc1ccccc1NC(=O)N1CCC2(CC1)Oc1ccccc1C(=O)N2Cc1ccccc1F |  | inactive: 16.5% |
| Cc1ccc(NS(=O)(=O)c2ccc(-c3cc(C)no3)cc2)c(Br)c1 | inactive |  |
| O=C(CCS(=O)(=O)c1cccc2nonc12)Nc1ccc(Br)cc1 |  | inactive: 0.451% |
| Cc1ccc(CCNC(=O)c2c(C)nn(-c3ccc(F)cc3)c2-n2cccc2)cc1 | inactive |  |
| Cc1ccc(CNc2nc3ccc(C)cc3n3nnnc23)cc1 |  | inactive: 1.79% |

| Structure (SMILES) | outcome | activity change, negative = inhibition |
| --- | --- | --- |
| CCc1ccc(NC(=O)C(=O)NCCc2sc3nc(-c4ccc(OC)cc4)nn3c2C)cc1 |  | inactive: -33.6% |
| Cc1ccccc1NC(=O)CSc1ccc(-c2cccs2)nn1 | inactive |  |
| O=c1[nH]c(SCc2ccc([N+](=O)[O-])cc2)nc2c1CCCC2 |  | inactive: 2.87% |
| COc1ccc(Cl)cc1NC(=O)CCn1c(=O)oc2ccccc21 |  | inactive: -8.83% |
| Cc1ccc(CNC(=O)Cn2cccc2C(=O)c2ccccc2C)cc1 |  | inactive: 8.54% |
| O=C(CSc1nnc(COc2ccccc2)o1)Nc1cc(C(F)(F)F)ccc1Cl |  | inactive: 0.173% |
| O=C(CSc1nccn1Cc1ccccc1)Nc1ccc2c(c1)OCCO2 |  | inactive: -4.94% |
| Cc1ccc(NC(=O)c2c(NC(=O)C(F)(F)F)sc3c2CCCCC3)cc1 | inactive |  |
| COc1ccc(NC(=O)c2cc(C3CC3)nc3c2c(C)nn3-c2ccccc2)cc1OC | inactive |  |
| CCc1ccc(OCC(=O)N(Cc2ccc(C)cc2)Cc2ccco2)cc1 |  | inactive: 1.87% |
| Cc1cccc(C)c1-n1ncc(C(=O)NCc2ccc3c(c2)OCO3)c1C1CCN(C(=O)OC(C)(C)C)CC1 |  | inactive: -2.35% |
| CCOc1ccc(CC(=O)Nc2ccc3c(c2)N(C)C(=O)c2ccccc2S3)cc1OCC |  | inactive: -12.4% |
| Cc1cccc(OCC(=O)Nc2nonc2-c2ccc(Br)cc2)c1C |  | inactive: -11.3% |
| CCCN1C(=O)C(O)(CC(=O)c2ccc(CC)cc2)c2cc(Br)ccc21 (configuration not stated) | inactive |  |
| O=C(Nc1ccc(OC(F)(F)F)cc1)C1CCCN(S(=O)(=O)c2cccc3nonc23)C1 (configuration not stated) | inactive |  |
| CC(=O)N1c2ccc(S(=O)(=O)NCC3CCC(C(=O)Nc4ccccc4C)CC3)cc2CC1C (configuration not stated) |  | inactive: 9.83% |
| CCCCN(C)CCCNC(=O)c1cc(=O)[nH]c2ccc(S(=O)(=O)N3CCCCC3)cc12 |  | inactive: 0.162% |
| CC1CCN(S(=O)(=O)c2cn(CC(=O)Nc3ccc(F)c(Cl)c3)c(=O)c3ccccc23)CC1 | inactive |  |
| Cc1cccc(-n2cc(-c3ccccc3)c3c(NC(C)C)ncnc32)c1 |  | inactive: -6.54% |
| COc1ccc(-n2c(=O)c3ccccc3n(CC(=O)NCCc3ccccc3)c2=O)c(OC)c1 |  | inactive: -0.841% |
| Cc1ccc(NC(=O)CCc2c(C)nc3c(-c4ccccc4)c(C)nn3c2C)c(C)c1 | inactive |  |
| COCCCNC(=O)CN1C(=O)COc2ccc(S(=O)(=O)N3CCCCCC3)cc21 |  | inactive: -1.85% |
| CCC1=Nc2cc(C(=O)NC(C)c3ccccc3)ccc2Sc2ccc(Cl)cc21 (configuration not stated) | inactive |  |
| COc1ccc2c(c1)CCc1sc(NC(=O)c3ccc(Cl)cc3)nc1-2 |  | inactive: 6.49% |
| CN(Cc1ccccc1)C(=O)CCS(=O)(=O)c1cc(Br)cc2c1N(C(=O)C1CC1)CC2 |  | inactive: 3.64% |

| Structure (SMILES) | outcome | activity change, negative = inhibition |
| --- | --- | --- |
| O=C(CSc1nccn1-c1cccc(Cl)c1)Nc1cccc(C(F)(F)F)c1 | inactive |  |
| Cc1ccc(NC(=O)CSc2nc(-c3ccc(F)cc3)nc3c2Cc2c(CO)cnc(C)c2O3)cc1C |  | inactive: 13.3% |
| COC(=O)c1ccccc1NC(=O)CN(c1ccccc1OC)S(C)(=O)=O | inactive |  |
| CC1CCN(C(=O)Cn2cc(SCc3ccccc3)c3ccccc32)CC1 |  | inactive: 1.03% |
| CC(C)c1ccc(NC(=O)c2ccc(F)c(S(=O)(=O)N3CCCC3)c2)cc1 | inactive |  |
| O=C(COc1ccccc1F)Nc1ccccc1OCc1cc(=O)n2ccccc2n1 |  | inactive: -8.17% |
| COc1ccccc1OCC(=O)Nc1nnc2n1CCS2 |  | inactive: 8.01% |
| CCCc1nnc(N2C(=O)c3oc4ccc(F)cc4c(=O)c3C2c2ccc(C(=O)OC)cc2)s1 (configuration not stated) |  | inactive: -14.2% |
| CCOc1ccc(-n2cc(C(=O)Nc3ccccc3OCC)c3cc(OC)c(OC)cc3c2=O)cc1 |  | inactive: -5.02% |
| CC1CCN(c2nnc(-n3cccc3CNc3cccc(F)c3)s2)CC1 | inactive |  |
| COc1cc2ccccc2cc1C(=O)N1CCN(c2nc3c(C)cc(C)cc3s2)CC1 |  | inactive: -25% |
| O=C(C1CCC1)N1CCc2cc(S(=O)(=O)N3CCN(c4ccccc4)CC3)ccc21 |  | inactive: 0.306% |
| Cc1ccc2nc(-c3ccccc3O)c(Nc3ccccc3C)n2c1 |  | inactive: -3.98% |
| CC1CCN(C(=O)Cn2cc(SCc3cccc(F)c3)c3ccccc32)CC1 |  | inactive: -5.71% |
| CCOC(=O)c1c(NC(=O)CS(=O)(=O)c2ccc(C)cc2)sc2c1CCC(C)C2 (configuration not stated) |  | inactive: 3.45% |
| CCc1ccccc1NC(=O)N1CCN(c2nnc(C)c3c(C)n(-c4ccccc4)nc23)CC1 | inactive |  |
| CCC(C)NC(=O)Cn1c(=O)n(CC2CCC(C(=O)NC)CC2)c(=O)c2sccc21 (configuration not stated) |  | inactive: 7.68% |
| Cc1cccc(NC(=O)C2CCN(S(=O)(=O)c3cccc4nsnc34)CC2)c1 | inactive |  |
| CCCOc1ccc(-c2nc3ccccc3c(=O)o2)cc1 | inactive |  |
| CC(C)(C)c1ccc(-c2nc3cc(NC(=O)c4cc5ccccc5o4)ccc3o2)cc1 |  | inactive: -13.5% |
| COc1ccc(CNC(=O)CCc2cn(Cc3cc(C)ccc3C)c3ccccc23)cc1OC |  | inactive: 5.29% |
| O=c1cc(-c2ccccc2)nc(SCc2nc(-c3ccc(C(F)(F)F)cc3)no2)[nH]1 | inactive |  |
